The whole screen tested about 350,000 compounds, of which about 31,000 (8.9%) were called active. The shares of active, inactive and inconclusive entries below differ from those in the screen. Calls come from the whole dose curve; as a rule, active = well fitted inhibition curve with a large enough effect; inconclusive = small, poorly fitted or top-dose-only effect; inactive = no such curve, though single readings can be large or run the other way. Potencies of inconclusive entries are doubtful fits and often do not repeat.
What follows are compounds tested against Histone-lysine N-methyltransferase EHMT2 (Homo sapiens) (UniProt Q96KQ7) (assay: qHTS Assay for Inhibitors of Histone Lysine Methyltransferase G9a). Settings: G9a H3K9 monomethylation, AlphaScreen, 2 h; activity, negative = inhibition: at 59 µM (top of the series) unless noted.
How it was run: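 Step 1: enzyme (final 20 nM) with compound, 15 min RT. Step 2: substrate peptide 500 nM and SAM 20 uM, 2 h RT. Step 3: anti-H3K9me1 antibody and AlphaScreen beads, 10 min, then plate read.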
% is set by controls: 0 for no effect and ±100 for the full control effect; potency is the fitted concentration of half-maximal effect; tags give direction and shape of the fitted curve.
Note: nearly all actives have a fitted effect of over 75% in size.

UniProt Q96KQ7, sequence (Q96KQ7 whole entry, looked up): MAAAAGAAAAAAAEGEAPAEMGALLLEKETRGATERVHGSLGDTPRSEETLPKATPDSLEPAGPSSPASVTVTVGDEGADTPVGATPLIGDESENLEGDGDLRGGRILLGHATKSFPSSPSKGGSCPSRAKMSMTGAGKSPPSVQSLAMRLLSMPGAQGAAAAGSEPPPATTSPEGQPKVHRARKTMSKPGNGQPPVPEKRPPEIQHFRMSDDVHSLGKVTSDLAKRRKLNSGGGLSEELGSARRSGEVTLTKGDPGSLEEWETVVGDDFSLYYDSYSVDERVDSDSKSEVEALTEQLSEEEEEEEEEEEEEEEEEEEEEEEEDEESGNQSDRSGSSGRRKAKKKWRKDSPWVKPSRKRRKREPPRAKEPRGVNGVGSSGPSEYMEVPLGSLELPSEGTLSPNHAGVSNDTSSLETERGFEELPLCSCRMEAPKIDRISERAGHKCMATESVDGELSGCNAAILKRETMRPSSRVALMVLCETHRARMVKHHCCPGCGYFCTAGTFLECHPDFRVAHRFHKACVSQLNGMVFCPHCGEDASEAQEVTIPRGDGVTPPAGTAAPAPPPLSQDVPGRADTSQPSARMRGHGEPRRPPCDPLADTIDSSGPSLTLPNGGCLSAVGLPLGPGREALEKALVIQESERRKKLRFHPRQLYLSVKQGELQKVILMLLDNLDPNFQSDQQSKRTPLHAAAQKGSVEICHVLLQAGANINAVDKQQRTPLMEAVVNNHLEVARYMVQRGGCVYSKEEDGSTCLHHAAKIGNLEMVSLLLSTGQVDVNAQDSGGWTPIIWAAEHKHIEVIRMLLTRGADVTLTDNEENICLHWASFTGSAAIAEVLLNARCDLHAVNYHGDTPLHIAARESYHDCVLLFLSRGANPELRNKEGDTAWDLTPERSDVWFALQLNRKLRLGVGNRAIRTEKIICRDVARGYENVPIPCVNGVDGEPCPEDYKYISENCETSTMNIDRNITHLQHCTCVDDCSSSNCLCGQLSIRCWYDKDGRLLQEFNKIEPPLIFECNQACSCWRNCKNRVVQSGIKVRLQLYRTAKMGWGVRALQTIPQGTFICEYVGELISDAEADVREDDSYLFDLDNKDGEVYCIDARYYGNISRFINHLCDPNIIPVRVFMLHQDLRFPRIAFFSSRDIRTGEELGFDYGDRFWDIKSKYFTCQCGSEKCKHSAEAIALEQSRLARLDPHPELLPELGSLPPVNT

| Compound | Potency | activity, negative = inhibition |
| --- | --- | --- |
| O=S(=O)(Cc1ccccc1)N1CCC(N2CCN(c3ccccc3)CC2)CC1 | inconclusive: 39.8 µM [inhibitor, single point] |  |
| COc1ccc(C(C)NC(=O)CN(c2cc(OC)ccc2OC)S(=O)(=O)c2ccccc2)cc1 (configuration not stated) | inconclusive: 22.4 µM [inhibitor, partial curve] |  |
| CCN1CCCC1CNC(=O)c1cc2c(-c3ccc(Cl)cc3)nn(C)c2s1 (configuration not stated) | active: 79.4 µM |  |
| CC1Cc2ccccc2N1C(=O)CSc1ncccc1C(=O)O (configuration not stated) | active: 79.4 µM |  |
| COc1ccc(C(=O)Nn2cc3c(c2-c2ccccc2)c(=O)n(C)c(=O)n3C)cc1 | inconclusive: 14.1 µM [inhibitor, partial curve] |  |
| O=C(Nc1cccnc1)c1cc2cc(Br)ccc2oc1=O | inconclusive: 35.5 µM [inhibitor, partial curve] |  |
| COc1ccc(C(=O)CNc2ccccc2CO)cc1 | inconclusive: 50.1 µM [inhibitor, partial curve] |  |
| O=C(C(Cl)c1ccccc1)N1CCCC1 (configuration not stated) | inconclusive: 89.1 µM [inhibitor, single point] |  |
| CN(C)/C=C1/C(=O)N(c2ccc([N+](=O)[O-])cc2)N=C1c1ccccc1 | inconclusive: 7.94 µM [inhibitor, full curve] |  |
| O=C1Nc2cc(C(=O)N3CCc4ccccc4C3)ccc2S/C1=C\c1ccccc1 | active: 7.94 µM |  |
| O=S(=O)(c1cccs1)N1CCN(c2ccccc2)CC1 | inactive |  |
| C[n+]1ccccc1/C=C/c1ccccc1Cl | inconclusive: 31.6 µM [inhibitor, single point] |  |
| Cc1ccc2nc(SCn3nnc4ccccc4c3=O)[nH]c2c1 | inconclusive: 17.8 µM [inhibitor, single point] |  |
| COc1ccc(-n2c(CC3C(=O)Nc4ccc(C)cc43)nc3ccccc3c2=O)cc1 (configuration not stated) | inconclusive: 44.7 µM [inhibitor, partial curve, poor fit] |  |
| C=CCN1C(=O)c2ccc(C(=O)N(C)CC(=O)Nc3ccc(OCC)c(OCC)c3)cc2C1=O | inconclusive: 50.1 µM [inhibitor, partial curve] |  |
| COC(=O)COn1c(-n2nc(C)cc2C)nc2ccccc2c1=O |  | inconclusive: -62.6% [inhibitor] |
| COc1cccc(-n2ccnc2SCC(=O)Nc2cccc3ccccc23)c1 | inconclusive: 28.2 µM [inhibitor, single point] |  |
| Cc1[nH]n(C(N)=S)c(=O)c1N=Nc1cccc([N+](=O)[O-])c1C | active: 56.2 µM |  |
| CCc1cccc(C)c1NC(=O)C1=C(C(=O)O)CCCC1 | inconclusive: 89.1 µM [inhibitor, single point] |  |
| Cc1ccc(C)c(CN2CCC(CNC(=O)C(CC(C)C)N3Cc4ccccc4C3=O)CC2)c1 (configuration not stated) | inconclusive: 39.8 µM [inhibitor, partial curve, poor fit] |  |
| CN1CCN(C(=S)c2cn(Cc3ccccc3)c3ccccc23)CC1 | active: 44.7 µM |  |
| CCc1cccc(C)c1NC(=O)C1CCN(S(=O)(=O)c2cc(Br)cc3c2N(C(C)=O)CC3)CC1 | inactive |  |
| CCOc1ccc(CCNC(=O)COC(=O)/C=C/c2ccc(C)o2)cc1OCC | inconclusive: 79.4 µM [inhibitor, partial curve, poor fit] |  |
| CCc1nc2nc(C)c(NS(=O)(=O)c3ccc(C4CCCCC4)cc3)c(=O)n2[nH]1 | inactive |  |

| Compound | Potency | activity, negative = inhibition |
| --- | --- | --- |
| O=C(CN1c2cccc3cccc(c23)S1(=O)=O)Nc1cccc(S(=O)(=O)N2CCOCC2)c1 | inconclusive: 50.1 µM [inhibitor, partial curve, poor fit] |  |
| Cc1ccccc1CNc1nc(N)n(-c2ccccc2)n1 | inconclusive: 89.1 µM [inhibitor, single point] |  |
| COC(C)(C)CCCC(C)C/C=C/C(C)=C/C(=O)O (configuration not stated) | inactive |  |
| Cc1occc1-c1nc(-c2ccccn2)no1 | inactive |  |
| c1ccc(COc2ccccc2CNC23CC4CC(CC(C4)C2)C3)cc1 |  | inactive: 38.1% [at 12.7 µM] |
| C/C(=N\NC(=O)COc1ccc(C(C)(C)C)cc1)c1ccc(N2CCOCC2)cc1 | active: 10 µM |  |
| S=c1[nH]nc(Nc2cccc(Cl)c2)s1 | active: 1.41 µM |  |
| CCCN(CCC)Cc1c(C(=O)N/N=C/C(C)=C\c2ccco2)nnn1-c1nonc1N | inconclusive: 79.4 µM [inhibitor, partial curve, poor fit] |  |
| CCCSC1=NC2(CCN(C(=O)NC3CCCCC3)CC2)N=C1c1ccc(OC)cc1 | inconclusive: 20 µM [inhibitor, partial curve, poor fit] |  |
| CCOc1ccc(CCNC(=O)C2CCN(C(=O)N(C)C)CC2)cc1OCC | inactive |  |
| c1ccc2[nH]c(CN3CCCCCC3)nc2c1 | active: 28.2 µM |  |
| Cc1ccccc1OCCC(=O)Nc1ccc(N2CCOCC2)cc1N1CCOCC1 | active: 44.7 µM |  |
| CC(=O)c1ccc(NC(=S)NC(NC(=O)c2ccco2)C(Cl)(Cl)Cl)cc1 (configuration not stated) | inconclusive: 89.1 µM [inhibitor, single point] |  |
| CCC(=O)NC1=C(NC(C)c2ccccc2)C(=O)c2ccccc2C1=O (configuration not stated) | inconclusive: 3.98 µM [inhibitor, full curve, poor fit] |  |
| O=C(c1cc(-c2ccco2)on1)N1CCc2ccccc2C1 | active: 11.2 µM |  |
| CC1(C)Cc2ccccc2-c2nc(CN3CCOCC3)[nH]c(=O)c21 | inconclusive: 89.1 µM [inhibitor, single point] |  |
| O=C(O)c1ccc(CS(=O)c2cccc(C(F)(F)F)c2)o1 (configuration not stated) | inconclusive: 39.8 µM [inhibitor, single point] |  |
| Cc1ccc(C)c(N=Nc2ccc(O)c3ncccc23)c1 | active: 11.2 µM |  |
| Cc1cc(NC(=O)c2cnn(-c3ccccc3)c2-n2cccc2)ccc1Br | inactive |  |
| CC(=O)Nc1ncc(N=Nc2cccc(C(F)(F)F)c2)s1 | active: 44.7 µM |  |
| S=C(N/N=C/c1ccccc1)N1CCOCC1 | inconclusive: 28.2 µM [inhibitor, single point] |  |
| CCOC(=O)C(C(=O)OCC)C(C)(C)/C(C)=N\Nc1ccc([N+](=O)[O-])cc1[N+](=O)[O-] | inconclusive: 11.2 µM [inhibitor, partial curve, poor fit] |  |
| CN1CC(=O)NC1=NC(=O)c1cc(F)c(F)cc1Cl | active: 31.6 µM |  |
| CCCN[C@@H](C)C(=O)Nc1c(C)csc1C(=O)OC | inactive |  |

| Compound | Potency | activity, negative = inhibition |
| --- | --- | --- |
| COc1ccc(/C(O)=C2/C(=O)C(=O)N(c3ccccn3)C2c2ccc(OC)cc2)cc1 (configuration not stated) | inconclusive: 89.1 µM [inhibitor, single point] |  |
| COC(=O)CCc1c(C)c(C(=O)c2ccc(F)cc2)c2ccccn12 | inconclusive: 50.1 µM [inhibitor, partial curve, poor fit] |  |
| Cc1ccc(OCCn2c(CNc3ccccc3C)nc3ccccc32)cc1 | inactive |  |
| O=C(c1ccc(Cl)cc1)C1CCCN(Cc2cnn(-c3ccccc3)c2)C1 (configuration not stated) | inactive |  |
| COc1ccccc1C(=O)NC(CCSC)C(=O)OCC(=O)c1ccc[nH]1 (configuration not stated) | inactive |  |
| CO/N=C(\C(=O)N[C@@H]1C(=O)N2C(C(=O)O)=C(CSc3nc(=O)c(O)nn3C)CSC12)c1csc(N)n1 (some centres not stated) | active: 28.2 µM |  |
| O=C(O)CSc1nnc2c(n1)[nH]c1ccccc12 | inconclusive: 79.4 µM [inhibitor, single point] |  |
| Oc1ccc(C(=S)N2CCN(Cc3ccccc3)CC2)cc1 | active: 2.24 µM |  |
| CC(C)Sc1nnc([C@H](C)NC(=O)OC(C)(C)C)o1 | inconclusive: 50.1 µM [inhibitor, partial curve, poor fit] |  |
| CCCCCCc1nnc(NC(=O)OCC)s1 | inconclusive: 79.4 µM [inhibitor, single point] |  |
| O=C(Nc1ccc(Cl)cc1Cl)c1ccc2ncsc2c1 | inconclusive: 56.2 µM [inhibitor, partial curve, poor fit] |  |
| O=C(CSc1nnnn1-c1ccc(F)cc1)c1ccc(O)c(O)c1 | inconclusive: 2.82 µM [inhibitor, full curve, poor fit] |  |
| O=C(c1ccc(CNc2c(NC3CCCCC3)c(=O)c2=O)cc1)N1CCc2ccccc21 | inconclusive: 89.1 µM [inhibitor, single point] |  |
| Cc1cccc(N(C)C(=O)C2CCC(CNS(=O)(=O)c3cccc4nsnc34)CC2)c1 (configuration not stated) | inactive |  |
| O=C(O)c1ccccc1C(=O)N1CC=C(c2ccccc2)CC1 | inconclusive: 89.1 µM [inhibitor, single point] |  |
| COc1cccc(CNC(=O)Cn2c(=O)cc(C)c3c(C)nn(C)c32)c1OC | inactive |  |
| O=C(Cc1cccs1)Nc1ccccc1C(=O)O | inconclusive: 100 µM [inhibitor, single point] |  |
| C/C(CC(=O)Nc1cccc(F)c1)=N\NC(=O)c1ccncc1 | inactive |  |
| O=C(O[C@H]1[C@H](Cc2ccccc2)NS(=O)(=O)[C@H]2C[C@@H]3C=C[C@]12O3)c1ccc([N+](=O)[O-])cc1 |  | inactive: -6.93% [at 2.33 µM] |
| COc1ccc(-c2csc(N(CCCN(C)C)C(=O)c3cc(OC)c(OC)c(OC)c3)n2)cc1 | inconclusive: 79.4 µM [inhibitor, single point] |  |
| COc1cccc(-c2nc3c(C#N)c[nH]n3c2NC2CCCCC2)c1 | inconclusive: 39.8 µM [inhibitor, partial curve, poor fit] |  |
| Cc1nnc2ccc(-c3ccc(NC(=O)c4ccco4)cc3)nn12 | active: 35.5 µM |  |
| CC(=O)Nc1cccc(-c2csc(Nc3ccccn3)n2)c1 |  | inactive: 15.9% [at 0.0925 µM] |
| Cc1ccccc1NS(=O)(=O)c1ccc(-c2ccc(=O)[nH]n2)o1 | inconclusive: 89.1 µM [inhibitor, single point] |  |

Source: PubChem BioAssay AID504332 (National Center for Advancing Translational Sciences (NCATS), 2011)
